Earlier results, collected in PMC11006913.
The list shows a part of the results.

Columns and labels:
Conditions in all cases: PBM; conditions not shown; double strand, one strand shown; scale: upbm affinity estimate (log intensity, higher = more binding, comparable within an allelic series)
[1] = molecular target: NKX2-5 K183E (Homo sapiens) (UniProt P52952)
[2] = molecular target: NKX2-5 R161P (Homo sapiens) (UniProt P52952)
[3] = molecular target: NKX2-5 R190C (Homo sapiens) (UniProt P52952)

| Sequence | binding signal [1] | binding signal [2] | binding signal [3] |
| --- | --- | --- | --- |
| AAGTGGAC [8-mer AAGTGGAC] | 11.3 | 12.5 | 10.5 |
| CCCTCTTA [8-mer CCCTCTTA] | 11.5 |  |  |
| ACCCCCAT [8-mer ACCCCCAT] | 10.2 | 10.3 | 9.96 |
| CCTCAAGA [8-mer CCTCAAGA] | 10.9 | 11.5 | 10.6 |
| GCAAGTGC [8-mer GCAAGTGC] | 10.6 |  |  |
| AAAGTGCG [8-mer AAAGTGCG] | 10.7 |  |  |
| GCAGGCAC [8-mer GCAGGCAC] | 10.2 | 10.4 | 10.2 |
| CTGCGGGA [8-mer CTGCGGGA] | 10.2 | 10.2 | 10.3 |
| CGGACCGC [8-mer CGGACCGC] | 10.1 | 10.2 | 10.1 |
| CCCGCGTC [8-mer CCCGCGTC] | 10.2 | 10.1 | 10.2 |
| ATGAAGAG [8-mer ATGAAGAG] | 11 | 11.7 | 10.8 |
| GCTCCTGA [8-mer GCTCCTGA] | 10.1 | 10.1 | 10.1 |
| ACGCACTC [8-mer ACGCACTC] | 10.6 |  |  |
| ATCCGGAT [8-mer ATCCGGAT] | 10.6 | 10.8 | 10.5 |
| AAGTGGGT [8-mer AAGTGGGT] | 11.6 | 12.4 | 10.4 |
| CACTTGAG [8-mer CACTTGAG] | 11.8 | 13.2 | 10.6 |
| AGAGCACT [8-mer AGAGCACT] | 10.8 | 11.9 | 10.5 |
| ACGGGAGG [8-mer ACGGGAGG] | 10.1 | 10.3 | 10.2 |
| ATAAGAGG [8-mer ATAAGAGG] | 11.7 |  |  |
| ATAAAGTG [8-mer ATAAAGTG] | 11.4 |  |  |
| AATACACT [8-mer AATACACT] | 11.4 |  |  |
| AACCAAGC [8-mer AACCAAGC] | 10.3 | 10.5 | 10.4 |
| CACTTGAA [8-mer CACTTGAA] | 11.9 | 13.2 | 10.9 |
| CTGAGTAC [8-mer CTGAGTAC] | 10.6 |  |  |

| Sequence | binding signal [1] | binding signal [2] | binding signal [3] |
| --- | --- | --- | --- |
| CGCGGTCC [8-mer CGCGGTCC] | 10.1 | 10.4 | 10 |
| AAACCGGG [8-mer AAACCGGG] | 10.2 | 10.2 | 10.1 |
| GAGTACCC [8-mer GAGTACCC] | 10.5 |  |  |
| GCTGGGTA [8-mer GCTGGGTA] | 10.3 | 10.4 | 10.4 |
| AAGTGGGG [8-mer AAGTGGGG] | 11.4 | 12.4 | 10.4 |
| CACTTCTC [8-mer CACTTCTC] | 11 | 11.8 | 10.6 |
| ACCTCTTA [8-mer ACCTCTTA] | 11.8 |  |  |
| AAGTGCCC [8-mer AAGTGCCC] | 11 | 12.5 | 10.3 |
| AAGTGGCC [8-mer AAGTGGCC] | 11.5 | 12.4 | 10.3 |
| AAGTACCC [8-mer AAGTACCC] | 10.8 | 12.6 |  |
| ACTTAAGT [8-mer ACTTAAGT] | 11.3 | 12.7 | 10.8 |
| ACGCCCCG [8-mer ACGCCCCG] | 9.96 | 9.98 | 9.87 |
| AAGTGGTG [8-mer AAGTGGTG] | 11.6 | 12.5 | 10.6 |
| CTGGACCC [8-mer CTGGACCC] | 10.3 | 10.4 | 10.2 |
| AACGCCGG [8-mer AACGCCGG] | 10.2 | 10.3 | 10.1 |
| CACTTAAG [8-mer CACTTAAG] | 12 | 13.1 | 10.9 |
| CGGCGTAC [8-mer CGGCGTAC] | 10.3 | 10.3 | 10.3 |
| CTGGGATC [8-mer CTGGGATC] | 10.3 | 10.3 | 10.2 |
| CGGGGCGA [8-mer CGGGGCGA] | 10.2 | 10.2 | 10.2 |
| CCAGGCCC [8-mer CCAGGCCC] | 10.2 | 10.3 | 10.1 |
| CCGGTCAG [8-mer CCGGTCAG] | 9.98 | 10.1 | 10.1 |
| AAGCACTT [8-mer AAGCACTT] | 11.3 | 12.7 | 10.7 |
| ACGGCGAG [8-mer ACGGCGAG] | 10.3 | 10.4 | 10.2 |
| ACCCGGTC [8-mer ACCCGGTC] | 10 | 10.1 | 10 |

| Sequence | binding signal [1] | binding signal [2] | binding signal [3] |
| --- | --- | --- | --- |
| AAGTGTGC [8-mer AAGTGTGC] | 10.9 | 12 | 10.7 |
| GACCCCGC [8-mer GACCCCGC] | 10.2 | 10.2 | 10.1 |
| GCACTTCA [8-mer GCACTTCA] | 11.4 | 12.8 | 10.7 |
| CGGGCCAG [8-mer CGGGCCAG] | 10.1 | 10.3 | 10.1 |
| CGGTGACA [8-mer CGGTGACA] | 10.4 | 10.5 | 10.4 |
| CCCGGGCA [8-mer CCCGGGCA] | 10.1 | 10.2 | 10 |
| CAAGTATC [8-mer CAAGTATC] | 11.1 | 12.1 | 10.8 |
| ACAAGTGG [8-mer ACAAGTGG] | 12 | 13 | 10.8 |
| CCGATCGC [8-mer CCGATCGC] | 10.2 | 10.3 | 10.3 |
| CACTTATC [8-mer CACTTATC] | 11.8 | 12.9 | 10.9 |
| CGGGTCAG [8-mer CGGGTCAG] | 10.1 | 10.2 | 10.2 |
| GCAGGGGC [8-mer GCAGGGGC] | 10.1 | 10.4 | 9.96 |
| CCACCACG [8-mer CCACCACG] | 10.4 | 10.4 | 10.3 |
| CCCGCGCG [8-mer CCCGCGCG] | 10.2 | 10.2 | 10.2 |
| CTGGACGC [8-mer CTGGACGC] | 10.1 | 10.2 | 10.2 |
| CGCCTTCC [8-mer CGCCTTCC] | 10.3 | 10.5 | 10.3 |
| AAGGCAGC [8-mer AAGGCAGC] | 10 | 10 | 10.1 |
| CTTCCCCC [8-mer CTTCCCCC] | 10.2 | 10.3 | 10 |
| ACCAGCTG [8-mer ACCAGCTG] | 10 | 10.2 | 10 |
| CGAGGCGC [8-mer CGAGGCGC] | 10.3 | 10.6 | 10.3 |
| AAGTGGAG [8-mer AAGTGGAG] | 11.4 | 12.5 | 10.8 |
| AGTACTTG [8-mer AGTACTTG] | 10.9 | 12.6 | 10.7 |
| AGCACTTG [8-mer AGCACTTG] | 11.1 | 12.5 | 10.5 |
| CACTTTAA [8-mer CACTTTAA] | 11.5 | 12.5 | 10.9 |

| Sequence | binding signal [1] | binding signal [2] | binding signal [3] |
| --- | --- | --- | --- |
| AAGTGGCT [8-mer AAGTGGCT] | 11.8 | 12.5 | 10.5 |
| AAGTGGAT [8-mer AAGTGGAT] | 11.6 | 12.7 | 10.6 |
| CCAAGGCG [8-mer CCAAGGCG] | 10.1 | 10.2 | 10.1 |
| CAACCTGG [8-mer CAACCTGG] | 10.4 | 10.6 | 10.4 |
| AAGTACCT [8-mer AAGTACCT] | 11 | 12.7 | 10.6 |
| GCACTCGA [8-mer GCACTCGA] | 11 | 12.4 | 10.6 |
| CACTTAGG [8-mer CACTTAGG] | 11.5 | 12.7 | 10.8 |
| CAAGTACC [8-mer CAAGTACC] | 11 | 12.7 | 10.7 |
| ATGGCCCG [8-mer ATGGCCCG] | 10.2 | 10.4 | 10.1 |
| AGTCCGGA [8-mer AGTCCGGA] | 10.3 | 10.5 | 10.4 |
| CACTTATA [8-mer CACTTATA] | 11.8 | 13 | 11.1 |
| CACTTATG [8-mer CACTTATG] | 11.8 | 13.2 | 11 |
| TCAAGTGA [8-mer TCAAGTGA] | 11.5 | 12.4 | 10.8 |
| GCCTCCGC [8-mer GCCTCCGC] | 10 | 10 | 10 |
| CCACTTAC [8-mer CCACTTAC] | 12.1 | 13.1 | 10.8 |
| CACTTGTA [8-mer CACTTGTA] | 11.4 | 12.5 | 10.8 |
| CAAGTGGG [8-mer CAAGTGGG] | 11.6 | 12.6 | 10.5 |
| ACACTTCA [8-mer ACACTTCA] | 11.2 | 12.5 | 10.9 |
| GGCCAAAC [8-mer GGCCAAAC] | 10.3 | 10.3 | 10.2 |
| CAGCAGAC [8-mer CAGCAGAC] | 10.2 | 10.3 | 10.3 |
| CTGACCCC [8-mer CTGACCCC] | 10.3 | 10.3 | 10.1 |
| CCCGACCG [8-mer CCCGACCG] | 10 | 10 | 10.1 |
| CACTTAAA [8-mer CACTTAAA] | 11.7 | 12.7 | 10.9 |
| CGGCCCCG [8-mer CGGCCCCG] | 10.1 | 10 | 9.92 |

| Sequence | binding signal [1] | binding signal [2] | binding signal [3] |
| --- | --- | --- | --- |
| ATAAGTGC [8-mer ATAAGTGC] | 11.6 | 13.1 | 10.9 |
| AACACTTG [8-mer AACACTTG] | 11.1 | 12.2 | 10.7 |
| ACACTTGA [8-mer ACACTTGA] | 11.5 | 13 | 10.8 |
| CCACTCAA [8-mer CCACTCAA] | 11.6 | 12.5 | 10.8 |
| ACAGGGTC [8-mer ACAGGGTC] | 10.3 | 10.5 | 10.3 |
| AGGCTCGG [8-mer AGGCTCGG] | 10.2 | 10.2 | 10.2 |
| GCACTTAA [8-mer GCACTTAA] | 11.6 | 13.1 | 10.9 |
| CCACTTAA [8-mer CCACTTAA] | 12.4 | 13.3 | 10.7 |
| CACACTTA [8-mer CACACTTA] | 11.2 | 12.6 | 10.8 |
| CAGACCGG [8-mer CAGACCGG] | 10.1 | 10.1 | 10.2 |
| GTACTTAA [8-mer GTACTTAA] | 11.4 | 12.9 | 11.1 |
| CTTAAGTA [8-mer CTTAAGTA] | 11.3 | 12.5 | 10.8 |
| ACACTTAT [8-mer ACACTTAT] | 11.5 | 12.8 | 11.1 |
| CGGTGGAA [8-mer CGGTGGAA] | 10.1 | 10.3 | 10.2 |
| CGCACTTA [8-mer CGCACTTA] | 11 | 12.7 | 10.7 |
| ACCACTTG [8-mer ACCACTTG] | 12 | 12.9 | 10.6 |
| AACACTTA [8-mer AACACTTA] | 11.4 | 12.7 | 10.9 |
| AGCGGCAG [8-mer AGCGGCAG] | 10.2 | 10.2 | 10.2 |
| CTGAGGCA [8-mer CTGAGGCA] | 10.4 | 10.4 | 10.4 |
| AAGTGGCG [8-mer AAGTGGCG] | 11.7 | 12.5 | 10.6 |
